Several values for one entry are separate records, joined by “and”; a condition that tells them apart may be missing. Equal entries are not always repeated. The inconclusive results got no clear call from the source; some entries with a clear call stand among them for comparison. For some assays here: Potencies beside an inconclusive call are fits to weak or partial responses and may not hold up. Activity calls are given as the source filed them. The call rests on the fitted dose curve; in most records, active means well fitted curve in the direction sought with a large enough effect; inconclusive means small, poorly fitted or top-dose-only effect, or another doubt; inactive means no such curve, though single readings can be large; an effect the other way counts as inactive or inconclusive.
Legend:
[1] = Viability qHTS for spleen associated tyrosine kinase inhibitor (SYKi) naive MV4-11 cells (AID 1963823); conditions: MV4-11 AML viability, CellTiter-Glo luminescence, 72 h; series mostly up to 45 µM; further: nearly all actives have a fitted effect of over 40% in size
Outline: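 Compounds were dispensed acoustically onto plates, MV4-11 cells (SYKi-naive) added at 500 per well, and plates incubated 72 hr at 37 C. CellTiter-Glo was added and luminescence measured after 10 min.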

[2] = Viability qHTS for spleen associated tyrosine kinase inhibitor (SYKi) drug resistant MV4-11 cells (AID 1963824); further: nearly all actives have a fitted effect of over 35% in size
Outline: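 SYK-inhibitor-resistant MV4-11 AML cells were seeded at 500 per well onto compound and cultured 72 hours (37 °C, 5% CO2). CellTiter-Glo was then added, and after 10 min at room temperature, luminescence gave viability.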

[3] = Quantitative highthroughput screen to assess conditional lethalithy of NOMO1 cells grown in RPMI1640 with dialyzed fetal bovine serum (RPMI+ds) (AID 1963877); further: nearly all actives have a fitted effect of over 30% in size
Outline: (§1)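 Each medium arm—HPLM with 10% dialyzed FBS, or RPMI1640 with 5 mM glucose and 10% untreated or dialyzed FBS—was screened against an 11-point, 3-fold compound titration for 48 h at 37 °C, with CellTiter-Glo luminescence as endpoint.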

[4] = Quantitative highthroughput screen to assess conditional lethalithy of SEM cells grown in RPMI1640 with dialyzed fetal bovine serum (RPMI+ds) (AID 1963884); conditions: SEM B-ALL cells, RPMI+dialyzed FBS, CellTiter-Glo viability, 48 h; viability: at 45.8 µM (top of the series); further: nearly all actives have a fitted effect of over 35% in size
Outline: as §1

[5] = Cellular viability qHTS for adrenocortical cancer (ACC) cell line SW-13 (AID 1963989); conditions: SW-13 ACC cells viability, CellTiter-Glo, 48 h; activity (max response): stronger effect = lower value; further: nearly all actives have a fitted effect of over 65% in size
Outline: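 Compound titrations (up to 46 uM final, in DMSO) were applied to SW-13 cells for 48 h at 37C/5% CO2. Reading used CellTiter-Glo after 20 min at room temperature; fitted curves yielded IC50 and efficacy.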

[6] = Quantitative highthroughput screen to assess conditional lethalithy of NOMO1 cells grown in Human Plasma-Like Medium with dialyzed fetal bovine serum (HPLM+ds) (AID 1963878); conditions: NOMO1 AML cells in HPLM+ds, CellTiter-Glo viability, 48 h; viability: at 45.8 µM (top of the series); further: nearly all actives have a fitted effect of over 35% in size
Outline: as §1

[7] = Quantitative highthroughput screen to assess conditional lethalithy of P12 Ichikawa cells grown in RPMI1640 with dialyzed fetal bovine serum (RPMI+ds) (AID 1963880); conditions: Potency: P12-Ichikawa viability; further: nearly all actives have a fitted effect of over 35% in size
Outline: as §1

[8] = Quantitative highthroughput screen to assess conditional lethalithy of P12 Ichikawa cells grown in RPMI1640 with untreated serum (RPMI+s) (AID 1963881); conditions: Potency: viability; further: nearly all actives have a fitted effect of over 35% in size
Outline: as §1

[9] = Quantitative highthroughput screen to assess conditional lethalithy of SEM cells grown in Human Plasma-Like Medium with dialyzed fetal bovine serum (HPLM+ds) (AID 1963882); further: nearly all actives have a fitted effect of over 35% in size
Outline: as §1

[10] = Quantitative highthroughput screen to assess conditional lethalithy of P12 Ichikawa cells grown in Human Plasma-Like Medium with dialyzed fetal bovine serum (HPLM+ds) (AID 1963879); conditions: Potency: viability; further: nearly all actives have a fitted effect of over 35% in size
Outline: as §1

[11] = Quantitative highthroughput screen to assess conditional lethalithy of SEM cells grown in RPMI1640 with unreated serum (RPMI+s) (AID 1963883); conditions: SEM B-ALL cells, CellTiter-Glo viability, 48 h; viability: at 45.8 µM (top of the series); further: nearly all actives have a fitted effect of over 35% in size
Outline: as §1

[12] = Cellular viability qHTS for adrenocortical cancer (ACC) cell line NCI-H295R (AID 1963990); conditions: CellTiter-Glo ATP luminescence, 48 h; series mostly up to 46.1 µM; further: nearly all actives have a fitted effect of over 60% in size
Outline: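 Readout: CellTiter-Glo luminescence, 20 min RT. Exposure: 48 h, 37C/5% CO2. Cells: NCI-H295R, ITS-DMEM serum-free. Range: up to 46 uM. Analysis: 4PL fit, IC50 plus efficacy.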
Potency means the concentration at half of the fitted maximal effect; tags describe the fitted curve by direction and shape.

COc1ccc(Cc2ccc(NC(N)=O)cc2)cc1-c1cccc(Cl)c1
Potency [1]: inconclusive: 23.5 µM [cytotoxic, partial curve]
Potency [2]: active: 18.6 µM
Potency [3]: inactive
Potency [4]: inconclusive: 18.7 µM [cytotoxic, partial curve, poor fit]
Potency [5]: inconclusive: 31.6 µM [cytotoxic, single point]

CC(C)(C)c1cc(C(=O)O)c(NC(=O)Nc2ccc3[nH]ncc3c2)s1
Potency [1]: inconclusive: 16.6 µM [cytotoxic, partial curve] and inconclusive: 9.2 µM [cytotoxic, partial curve]
Potency [2]: inconclusive: 20.9 µM [cytotoxic, partial curve] and inconclusive: 16.4 µM [cytotoxic, partial curve]
Potency [6]: inactive
Potency [7]: inactive
Potency [8]: inactive
Potency [9]: inactive

Clc1ccc2c(N3CCN(CCCN4CCN(c5ccnc6cc(Cl)ccc56)CC4)CC3)ccnc2c1
Potency [1]: inconclusive: 29.5 µM [cytotoxic, single point]
Potency [2]: inconclusive: 20.9 µM [cytotoxic, partial curve]
Potency [6]: inactive
Potency [10]: inconclusive: 7.24 µM [cytotoxic, partial curve]
Potency [7]: inconclusive: 4.57 µM [cytotoxic, partial curve]
Potency [8]: inconclusive: 5.12 µM [cytotoxic, full curve]
Potency [9]: inconclusive: 7.24 µM [cytotoxic, partial curve, poor fit]
Potency [11]: active: 7.24 µM
Potency [4]: inconclusive: 11.5 µM [cytotoxic, partial curve]
Potency [12]: inactive

N[C@@H](Cc1c[nH]c2ccc(O)cc12)C(=O)O
Potency [1]: inconclusive: 16.6 µM [cytotoxic, partial curve]
Potency [2]: inconclusive: 11.9 µM [cytotoxic, partial curve]
Potency [6]: inactive
Potency [10]: inactive
Potency [11]: inconclusive: 11.8 µM [cytotoxic, partial curve, poor fit]
Potency [4]: inconclusive: 6.62 µM [cytotoxic, partial curve, poor fit]

NC(=O)C1CCCc2c1[nH]c1ccc(Cl)cc21 (stereo not drawn)
Potency [1]: inconclusive: 0.0012 µM [rising, full curve, poor fit]
Potency [2]: inconclusive: 14.8 µM [cytotoxic, partial curve, poor fit]
Potency [6]: active: 5.9 µM
Potency [10]: inconclusive: 8.33 µM [cytotoxic, full curve]
Potency [7]: inconclusive: 13.2 µM [cytotoxic, partial curve]
Potency [8]: inconclusive: 14.8 µM [cytotoxic, partial curve]
Potency [11]: active: 5.26 µM

CC1(C)CCC(C)(C)c2cc(NC(=O)c3ccc(C(=O)O)cc3)ccc21
Potency [1]: inactive and inconclusive: 37.2 µM [cytotoxic, partial curve, poor fit]
Potency [2]: inconclusive: 11.9 µM [cytotoxic, partial curve, poor fit] and inconclusive: 7.42 µM [cytotoxic, partial curve]
Potency [6]: inconclusive: 26.4 µM [cytotoxic, single point]
Potency [10]: inactive
Potency [7]: inconclusive: 26.4 µM [cytotoxic, partial curve, poor fit]
Potency [4]: inactive

COc1ccc(Nc2nccc(NCCO)n2)cc1
Potency [1]: inconclusive: 18.6 µM [cytotoxic, partial curve]
Potency [2]: inconclusive: 20.9 µM [cytotoxic, partial curve, poor fit]
Potency [6]: inconclusive: 33.2 µM [cytotoxic, single point]
Potency [7]: inactive
Potency [8]: inactive
Potency [9]: inactive

O=C(c1ccc(C(=O)N2CCC(N3CCCC3)CC2)c(Nc2ccccc2)c1)N1CCC(N2CCCC2)CC1
Potency [1]: inconclusive: 9.2 µM [cytotoxic, partial curve] and inactive
Potency [2]: inconclusive: 8.2 µM [cytotoxic, partial curve] and inactive
Potency [3]: inactive
Potency [4]: inactive

C[C@@H](CN1CC(=O)NC(=O)C1)N1CC(=O)NC(=O)C1
Potency [1]: inactive and inconclusive: 13.2 µM [cytotoxic, partial curve]
Potency [2]: inconclusive: 75 nM [cytotoxic, full curve, poor fit] and inconclusive: 16.6 µM [cytotoxic, partial curve]
Potency [6]: active: 0.148 µM

O=C(NC1CCOCC1)c1ccc(-c2cc(-c3cn[nH]c3-c3ccccn3)ccn2)cc1
Potency [1]: inconclusive: 14.8 µM [cytotoxic, partial curve]
Potency [2]: inconclusive: 18.6 µM [cytotoxic, partial curve]
Potency [6]: inactive
Potency [10]: inactive
Potency [7]: inactive
Potency [8]: inactive
Potency [9]: inactive

CC1COc2c(N3CCN(C)CC3)c(F)cc3c(=O)c(C(=O)O)cn1c23 (stereo not drawn)
Potency [1]: inconclusive: 8.41 µM [cytotoxic, partial curve, poor fit] and inconclusive: 209 nM [cytotoxic, partial curve, poor fit]
Potency [2]: active: 8.41 µM and inconclusive: 7.42 µM [cytotoxic, full curve, poor fit]
Potency [6]: inactive
Potency [7]: inactive
Potency [8]: inactive
Potency [9]: inactive

NCCCC(N)(C(=O)O)C(F)F (stereo not drawn)
Potency [1]: inactive and inconclusive: 11.8 µM [cytotoxic, partial curve, poor fit]
Potency [2]: inactive
Potency [6]: inconclusive: 23.5 µM [cytotoxic, single point]
Potency [10]: inactive

CC(=O)Nc1cccc(-n2c(=O)n(C3CC3)c(=O)c3c(Nc4ccc(I)cc4F)n(C)c(=O)c(C)c32)c1
Potency [1]: inconclusive: 10.3 nM [cytotoxic, full curve] and inconclusive: 52.5 nM [cytotoxic, full curve]
Potency [2]: inconclusive: 10.3 nM [cytotoxic, full curve] and inconclusive: 46.8 nM [cytotoxic, full curve, poor fit]
Potency [3]: active: 0.209 µM
Potency [4]: active: 1.87 µM
Potency [5]: inconclusive: 0.178 µM [cytotoxic, full curve]

O=C(O)COCCN1CCN(C(c2ccccc2)c2ccc(Cl)cc2)CC1 (stereo not drawn)
Potency [1]: inconclusive: 33.5 µM [rising, single point]
Potency [2]: inactive
Potency [3]: inactive
Potency [4]: inactive

CN1CCN(c2ccc(C(=O)Nc3n[nH]c4ccc(Cc5cc(F)cc(F)c5)cc34)c(NC3CCOCC3)c2)CC1
Potency [1]: inconclusive: 326 nM [cytotoxic, full curve] and active: 209 nM and active: 164 nM
Potency [2]: active: 326 nM and active: 372 nM and active: 411 nM
Potency [6]: inconclusive: 16.6 µM [cytotoxic, partial curve, poor fit]
Potency [10]: active: 23.4 µM
Potency [9]: active: 4.17 µM
Potency [4]: active: 3.71 µM
Potency [12]: active: 7.08 µM

CC[N+](CC)(CC)CCOc1cccc(OCC[N+](CC)(CC)CC)c1OCC[N+](CC)(CC)CC
Potency [1]: inconclusive: 11.9 µM [cytotoxic, partial curve, poor fit] and inactive
Potency [2]: inactive
Potency [6]: inconclusive: 23.5 µM [cytotoxic, partial curve]
Potency [10]: inactive
Potency [8]: inactive

COc1ccc2c(Oc3ccc(NC(=O)c4c(C)n(CC(C)(C)O)n(-c5ccccc5)c4=O)nc3)ccnc2c1
Potency [1]: inconclusive: 130 nM [cytotoxic, full curve] and active: 166 nM
Potency [2]: inconclusive: 0.259 µM [cytotoxic, full curve]
Potency [6]: inconclusive: 2.64 µM [cytotoxic, single point]
Potency [7]: inconclusive: 18.7 µM [cytotoxic, single point]
Potency [8]: inconclusive: 23.5 µM [cytotoxic, single point]
Potency [9]: inconclusive: 1.32 µM [cytotoxic, full curve]
Potency [11]: inconclusive: 1.32 µM [cytotoxic, full curve]
Potency [4]: inconclusive: 1.18 µM [cytotoxic, full curve]

OC[C@@H](O)[C@@H](O)[C@H](O)[C@@H](O)CO
Potency [1]: inactive
Potency [2]: inactive
Potency [6]: inactive
Potency [10]: inactive
Potency [8]: inactive
Potency [12]: inactive

Cc1cncc2cccc(S(=O)(=O)N3CCCN(C(=O)CN)C[C@@H]3C)c12
Potency [1]: inconclusive: 2.95 µM [cytotoxic, full curve]
Potency [2]: inconclusive: 10.3 µM [cytotoxic, partial curve]
Potency [6]: inconclusive: 18.7 µM [cytotoxic, partial curve]
Potency [10]: active: 5.26 µM
Potency [7]: active: 6.62 µM
Potency [9]: inconclusive: 8.33 µM [cytotoxic, partial curve]
Potency [4]: active: 4.18 µM

CC1(C)O[C@H]2CC(=O)OC[C@]23[C@H]2CC[C@@]4(C)[C@H](c5ccoc5)OC(=O)[C@H]5O[C@]54[C@]2(C)C(=O)C[C@@H]13
Potency [1]: inactive
Potency [2]: inactive
Potency [6]: inconclusive: 0.0012 µM [cytotoxic, full curve, poor fit]
Potency [7]: inactive
Potency [8]: inactive
Potency [9]: inactive
Potency [11]: inactive

Cc1cnc(-c2cnc(NCCNc3ccc(C#N)cn3)nc2-c2ccc(Cl)cc2Cl)[nH]1
Potency [1]: inconclusive: 29.1 µM [cytotoxic, single point]
Potency [2]: inconclusive: 18.4 µM [cytotoxic, single point]
Potency [6]: inconclusive: 13.2 µM [cytotoxic, partial curve, poor fit]
Potency [10]: inconclusive: 33.2 µM [cytotoxic, single point]
Potency [7]: inconclusive: 37.2 µM [cytotoxic, single point]
Potency [8]: inconclusive: 37.2 µM [cytotoxic, single point]
Potency [9]: inconclusive: 2.96 µM [cytotoxic, partial curve, poor fit]
Potency [11]: inconclusive: 4.18 µM [cytotoxic, partial curve, poor fit]
Potency [4]: inconclusive: 5.26 µM [cytotoxic, partial curve, poor fit]
